Reference: PubChem BioAssay AID624417 (National Center for Advancing Translational Sciences (NCATS), 2012)
Where “and” joins values, the source holds several entries; their conditions need not be identical. Identical values can stand only once. The whole screen tested about 410,000 compounds, of which about 6,400 (1.6%) were called active. The inconclusive results got no clear call from the source; some entries with a clear call stand among them for comparison. Calls follow the shape of the dose curve; as a rule, active = well fitted inhibition curve with a large enough effect; inconclusive = small, poorly fitted or top-dose-only effect; inactive = no such curve, though single readings can be large or run the other way. Potencies beside an inconclusive call are fits to weak or partial responses and may not hold up.

Molecular target: Glucagon-like peptide 1 receptor (Homo sapiens) (UniProt P43220)
Experiment: qHTS of GLP-1 Receptor Inverse Agonists (Inhibition Mode); also: nearly all actives have a fitted effect of over 55% in size
Conditions: HEK293 GLP-1R CRE-luciferase, luminescence, 24 h, GLP-1R form is constitutively active; activity change, negative = inhibition: at 38.3 µM (top of the series) unless noted
Procedure, shortened: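 Using stably transfected HEK293 (constitutively active GLP-1R, cAMP-luciferase reporter), compounds were incubated 24 hr and luciferase measured by luminescence.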
% is scaled to controls: 0 for no effect and ±100 for the full control effect; potency is read from the fitted curve at half-maximal effect; tags tell the direction and shape of the fitted curve.

Sequence of UniProt P43220 (P43220 whole entry, looked up): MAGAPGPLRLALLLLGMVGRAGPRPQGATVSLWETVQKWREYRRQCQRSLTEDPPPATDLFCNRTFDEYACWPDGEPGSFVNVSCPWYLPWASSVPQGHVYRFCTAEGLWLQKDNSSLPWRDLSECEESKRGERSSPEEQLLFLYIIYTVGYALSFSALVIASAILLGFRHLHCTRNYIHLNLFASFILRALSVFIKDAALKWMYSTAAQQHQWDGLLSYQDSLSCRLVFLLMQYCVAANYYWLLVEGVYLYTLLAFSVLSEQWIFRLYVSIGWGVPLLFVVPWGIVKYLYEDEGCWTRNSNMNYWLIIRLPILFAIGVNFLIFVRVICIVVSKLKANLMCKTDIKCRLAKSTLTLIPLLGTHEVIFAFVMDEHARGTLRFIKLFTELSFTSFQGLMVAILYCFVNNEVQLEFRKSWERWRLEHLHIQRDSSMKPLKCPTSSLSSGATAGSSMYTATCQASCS

| SMILES | Potency | activity change, negative = inhibition |
| --- | --- | --- |
| COC1OCC(O)C(OC(=O)c2ccccc2)C1OC(=O)c1ccccc1 (stereo unspecified) | inconclusive: 8.91 µM [inhibitor, partial curve, poor fit] |  |
| Cc1cccc(NS(=O)(=O)c2ccccc2)n1 | inactive |  |
| COc1ccc(S(=O)(=O)Nc2cccc(-c3ccc(N4CCC(C)CC4)nn3)c2)cc1OC | inconclusive: 28.2 µM [inhibitor, single point] |  |
| CC(C)NCCCCOc1ccc(Br)cc1Cl | inconclusive: 10 µM [inhibitor, partial curve] |  |
| Cc1cccc(-c2noc(-c3ccccc3NC(=O)C3CC(=O)N(c4ccccc4C)C3)n2)c1 (stereo unspecified) | inactive |  |
| O=S1(=O)CCN(c2ccccc2CC(c2c[nH]c3ccccc23)c2c[nH]c3ccccc23)CC1 | inconclusive: 5.01 µM [inhibitor, full curve, poor fit] |  |
| Cc1cccc(C2C3=C(Nc4[nH]n(-c5ccccc5)c(=O)c42)c2ccccc2C3=O)c1 (stereo unspecified) | inconclusive: 20 µM [inhibitor, single point] |  |
| O=C(N/N=C/c1ccccn1)c1cc(Br)ccc1O | inconclusive: 12.6 µM [inhibitor, single point] |  |
| O=C(c1cccc(S(=O)(=O)N2CCOCC2)c1)N(CCc1ccccc1)Cc1ccccc1 | inconclusive: 28.2 µM [inhibitor, single point] |  |
| CCOc1ccc(CN2CCN(Cc3cccn3-c3nccs3)CC2CCO)cc1 (stereo unspecified) | inconclusive: 14.1 µM [inhibitor, partial curve, poor fit] |  |
| CCOC(=O)c1c(CN2CCCCC2)n(C)c2cc(Br)c(OC)cc12 | inconclusive: 20 µM [inhibitor, single point] |  |
| O=C(CCNS(=O)(=O)c1ccc(Cl)cc1)NCCc1ccccc1 | inactive |  |
| C=CCOC(=O)C1=C[C@H](C2CCCCC2)C[C@H](OCc2ccc(CO)cc2)O1 | inconclusive: 10 µM [inhibitor, partial curve] |  |
| CC(=N\Nc1ccc(Cl)cc1)/C(=N/O)C(=O)Nc1ccccc1 | inconclusive: 12.6 µM [inhibitor, single point] |  |
| CCOC(=O)c1c(NC(=S)SC)sc(C(=O)N2CCc3ccccc3C2)c1C | inactive |  |
| O=C(NCCc1ccc(Cl)cc1)Nc1ccc(F)cc1 | inconclusive: 14.1 µM [inhibitor, partial curve, poor fit] |  |
| COc1ccc(C(CC(=O)c2ccc(C)cc2)C(C#N)C#N)cc1OC (stereo unspecified) | inconclusive: 12.6 µM [inhibitor, partial curve, poor fit] |  |
| O=C(CNC(=O)c1ccc(Br)o1)Nc1cccc(S(=O)(=O)N2CCCC2)c1 | inconclusive: 10 µM [inhibitor, partial curve, poor fit] |  |
| CN(CC(=O)Nc1cccc(F)c1)C(=O)c1cccc2ccccc12 | inconclusive: 12.6 µM [inhibitor, single point] |  |
| Cc1ccc(Cc2c(-c3cccc(Cl)c3)nc3cc(C)c(Br)c(C)n23)cc1 | active: 3.16 µM |  |
| Cc1cc(OCC(=O)N2CCN(c3ccccn3)CC2)cc(C)c1Br | inconclusive: 11.2 µM [inhibitor, partial curve, poor fit] |  |

| SMILES | Potency | activity change, negative = inhibition |
| --- | --- | --- |
| Cc1cccc(CNS(=O)(=O)c2ccc(-c3cnc(C4CC4)o3)cc2)c1 | inconclusive: 11.2 µM [inhibitor, single point] and inconclusive: 15.8 µM [inhibitor, partial curve, poor fit] |  |
| CCCc1cc(=O)n2[nH]c(NC(=O)c3ccc(C(C)(C)C)cc3)nc2n1 | inactive |  |
| CC(=O)c1cccc(NC(=O)CN2C=NS(=O)(=O)c3ccc(C)cc32)c1 | inconclusive: 0.501 µM [inhibitor, full curve, poor fit] |  |
| CC(C)(C)OC(=O)N1CCC(Cc2cc(-c3ccccc3)no2)(C(=O)O)CC1 | inactive |  |
| CC1CCN(CC(=O)Nc2ccccc2C(=O)c2ccccc2)CC1 | inconclusive: 10 µM [inhibitor, partial curve] |  |
| Cc1ccc(CNC(=O)COCc2cc(-c3cccs3)on2)cc1 | inactive |  |
| COc1ccc(C(=O)Nc2nc3nc(C)c(Cc4ccccc4)c(=O)n3[nH]2)cc1OC | inactive |  |
| O=C(NCc1ccccc1)[C@]1(C(F)(F)F)C[C@H](CCc2ccccc2)CCCO1 | inconclusive: 11.2 µM [inhibitor, partial curve, poor fit] |  |
| COc1ccc(C2CC(c3ccccc3)=NN2C(=O)COC(=O)/C=C/c2ccc(O)c(OC)c2)cc1 (stereo unspecified) | inconclusive: 2 µM [inhibitor, full curve, poor fit] |  |
| Cc1ccc(S(=O)(=O)N2[C@@H](c3ccc(Cl)c(Cl)c3)C(C(=O)O)=C[C@H]2CC2CCCC2)cc1 | inconclusive: 10 µM [inhibitor, partial curve, poor fit] |  |
| COc1cc(OC)cc(-c2c(-c3ccc(F)cc3)c3cc(-c4ccc5c(c4)OCCO5)ccc3n2C)c1 | inconclusive: 1.58 µM [inhibitor, full curve, poor fit] |  |
| O=C(CCN1C(=O)C2C3C=CC(C4CC34)C2C1=O)Oc1ccccc1 (stereo unspecified) | inactive |  |
| CCCCn1c(CCl)nc2cc(S(=O)(=O)N3CCOCC3)ccc21 | inconclusive: 10 µM [inhibitor, partial curve, poor fit] |  |
| CCOc1ccc(N(C)Cc2cc(=O)oc3ccc(OCC)cc23)cc1 |  | inconclusive: -54.3% [inhibitor] |
| Cc1cccc(NC(=O)c2sc(Cl)nc2-c2ccccc2)c1 | inconclusive: 12.6 µM [inhibitor, single point] |  |
| Cc1ccsc1C(=O)C1CCCN(Cc2cn(C)nc2-c2ccccc2)C1 (stereo unspecified) | inconclusive: 11.2 µM [inhibitor, partial curve, poor fit] |  |
| Cn1ccc2c(-c3cncc4ccccc34)cc3c(c21)C1CCC3C1 (stereo unspecified) | inconclusive: 10 µM [inhibitor, partial curve, poor fit] |  |
| Brc1ccc2[nH]c3c(NCc4ccccn4)ncnc3c2c1 | inconclusive: 12.6 µM [inhibitor, single point] |  |
| CN(C)c1ccc(-c2nc3cc(N)ccc3o2)cc1 | inconclusive: 5.01 µM [inhibitor, partial curve] |  |
| CC(C)OCCCN(C)C1CCN(S(=O)(=O)c2ccc(-c3cc(C(F)(F)F)no3)s2)CC1 | inconclusive: 2.82 µM [inhibitor, full curve, poor fit] |  |
| COC(=O)[C@]12CCCCC=C1N(CCc1ccc(OC)c(OC)c1)C(=O)[C@H](CC(=O)N1CCC(c3ccccc3)CC1)C2 | inconclusive: 11.2 µM [inhibitor, single point] |  |

| SMILES | Potency | activity change, negative = inhibition |
| --- | --- | --- |
| O=C(Nc1cccc(S(=O)(=O)N2CCCCC2)c1)c1ccc2ccccc2n1 | inconclusive: 10 µM [inhibitor, single point] |  |
| COc1cccc(CNC(=O)c2ccc3nc(-c4ccc(F)cc4)c(-c4ccc(F)cc4)nc3c2)c1 | inconclusive: 3.16 µM [inhibitor, full curve] |  |
| C/C(=N/OCC(=O)NCCCCCCNC(=O)CO/N=C(/C)c1cccs1)c1cccs1 | inconclusive: 11.2 µM [inhibitor, single point] |  |
| O=CNc1cc2c(cc1Br)-c1ccccc1C2O (stereo unspecified) | inconclusive: 5.62 µM [inhibitor, full curve, poor fit] |  |
| CCCCN(C)C(=S)Nc1ccc2nc3n(c(=O)c2c1)CCCCC3 | inconclusive: 3.98 µM [inhibitor, partial curve, poor fit] |  |
| COc1cnc(-c2ccccn2)nc1Oc1ccccc1 | inconclusive: 0.501 µM [inhibitor, full curve, poor fit] |  |
| COc1cccc(CN2C(=O)c3ccccc3Sc3ccc(C(=O)N(C)Cc4ccccc4)cc32)c1 | inconclusive: 28.2 µM [inhibitor, single point] |  |
| CCCCNC(=O)CSc1nc2ccccc2nc1Cc1ccc(C)cc1 | inactive |  |
| COc1ccc(OCC(=O)NCCc2c[nH]c3ccccc23)cc1 | inconclusive: 31.6 µM [inhibitor, partial curve, poor fit] |  |
| COc1ccc(CNC(=O)Nc2ccc3c(c2)N(C)C(=O)c2ccccc2S3)cc1 | inconclusive: 11.2 µM [inhibitor, partial curve, poor fit] |  |
| COc1ccc(-c2csc(Cc3nc(O)cs3)n2)cc1 | inconclusive: 28.2 µM [inhibitor, single point] |  |
| O=C(Cn1cc(COc2c(F)c(F)c(Br)c(F)c2F)nn1)c1ccc(O)cc1 | inconclusive: 10 µM [inhibitor, single point] |  |
| O=C(NCc1ccc2c(c1)CCN2C(=O)c1ccccc1)c1cc2ccccc2[nH]1 | inactive |  |
| S=C(Nc1ccc(Cl)cc1)NC1CC2CCCC(C1)N2C1CC1 (stereo unspecified) | inconclusive: 28.2 µM [inhibitor, single point] |  |
| Cc1ccc(S(=O)(=O)N2CCCCC2)cc1NC(=O)CCOc1ccccc1 | inconclusive: 20 µM [inhibitor, single point] |  |
| Cc1ccc(CNC(=O)C2CC(c3ccccc3F)=NO2)cc1 (stereo unspecified) | inconclusive: 5.62 µM [inhibitor, partial curve] |  |
| Cc1ccc(C)c(S(=O)(=O)N2CCCC2CNC(=O)C(=O)NCCc2ccccc2)c1 (stereo unspecified) | inconclusive: 14.1 µM [inhibitor, partial curve, poor fit] |  |
| CCc1ccc(NC(=O)c2sc3ncnc(N(C)C4CCCCC4)c3c2C)cc1 | inconclusive: 12.6 µM [inhibitor, single point] |  |
| O=C(c1ccccc1)C(CCC(CN1CCOCC1)C(=O)c1ccccc1)CN1CCOCC1 (stereo unspecified) | inconclusive: 5.62 µM [inhibitor, full curve, poor fit] |  |
